Measured values taken from the supplement of paper PMC11417369.
± gives the standard deviation of the averaged measurements. This is one part of the list.

Test system: PfAP2-LT AP2 domain (GST-tagged)
Assay: gcPBM binding intensity (ln(normalized median fluorescence intensity)); higher = stronger DNA binding
Method in brief: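 Probes on an Agilent 4 × 180k array were primer-extended, double-stranded and 36 bp long, taken from intergenic genomic regions, with negative controls added. GST-tagged P. falciparum DNA-binding domains from E. coli, about 25 μg on average, were applied to the array for 1 h in 1× PBS containing 1% milk, 0.2 mg/ml BSA, 0.5% salmon testes DNA and 0.03% Triton X-100. Binding intensity, obtained after Alexa488 anti-GST antibody detection and a 488 nm scan, is the highest Masliner-normalised natural-log median intensity across replicate spots of either probe orientation.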

Row | Sequence | gcPBM binding intensity (ln)
1 | TATTATAAAATATACACATGCAAAAACAAAATTTAC [TGCATGCA_site1051] | 8.84 ± 0.38
2 | TATATACATTGGTATACATGCATTCTCTTTCATACA [TGCATGCA_site734] | 8.87 ± 0.48
3 | TAAAATTTATAAACTACACACATATAAATAGTAATA [CACACA_site7708] | 8.84 ± 0.42
4 | TAAACACCCATATAAACACACATATAAACACCCATA [CACACA_site5382] | 9.4 ± 0.21
5 | TTTATTTATTTTTAACGTACGCACACATATAAATAT [XGTACX_site4042] | 9.41 ± 0.54
6 | TAATGAAGATATATAACACACAAAAGTTATAAATAT [CACACA_site6678] | 8.97 ± 0.43
7 | ATATATAATAATATATGTACATAATATTTTTTTTTT [XGTACX_site1941] | 8.61 ± 0.47
8 | GCCATTAATTTATACACACACATTAAAATTTTTTAT [CACACA_site4575] | 9.24 ± 0.37
9 | GCTATAAATACAGACGCACACATATACATACATATA [CACACA_site3329] | 9.42 ± 0.33
10 | TAATTTATAAATAATTGTACATAGTTTATTTAGATT [XGTACX_site4599] | 8.49 ± 0.43
11 | TAATTATAAAAATAAAACAACCAAATTTGTTATATA [CACACA_negctrl_site750] | 8.47 ± 0.45
12 | AAAAAAAAAAAAAAAAAATAATAAAAAATAAAAAAA [GTGCAC_negctrl_site341] | 8.4 ± 0.57
13 | ATATATATAAAATAAAGTACCCGTAAAACCTATATG [XGTACX_site6937] | 8.98 ± 0.41
14 | TATGTTAATCCTATTTGTACATATAATCGAATTAAA [XGTACX_site7090] | 8.47 ± 0.39
15 | GACGACTATATTAATTGTACTCAATTTAAGCATAAT [XGTACX_site2750] | 8.72 ± 0.35
16 | GAAAGGAAAAGTTGAACACACAAAGTAAACTATAAG [CACACA_site3535] | 9.1 ± 0.53
17 | ATATATATATTAATTACACACAAAAAAAAAAAAAAA [CACACA_site1165] | 8.84 ± 0.41
18 | AAAAAAAAAAAAAATATACACACTAATATATTTTTT [CACACA_site815] | 8.73 ± 0.41
19 | TCATTCGAATAAATTGCACACATGACATCCGTTGTA [CACACA_site2587] | 9.16 ± 0.33
20 | TATATACAGATATATACACACATATTTATATTTTAT [CACACA_site7734] | 8.89 ± 0.41
21 | GTATAGAGAAAAAACTGTACTTTATATAAATATTTA [XGTACX_site3972] | 8.52 ± 0.48
22 | TATTAATAATATAATAGTACTTTCACTGTAAATTTA [XGTACX_site6419] | 8.41 ± 0.54
23 | TATCCTACATTAACAAGTACAAAGAGATCCTACGTA [XGTACX_site4252] | 8.57 ± 0.34

Row | Sequence | gcPBM binding intensity (ln)
24 | AAGAATATATAGGACACACATACAATAATAAATATA [CACACA_site4119] | 9.16 ± 0.54
25 | AACGCCACTTCAATGGCACACACCAATTATTTTTCA [CACACA_site1026] | 8.95 ± 0.39
26 | TTTCTCCATATTAAAGTGCATTAATAACAAAAATAA [GTGCAC_site9934] | 8.31 ± 0.42
27 | CAAGAACAAAAAATATGTACATATAATTATATATAT [XGTACX_site2082] | 8.99 ± 0.52
28 | CATATCTCTTATTAATGTACATTTTTAAAAGTAAAT [XGTACX_site2847] | 8.49 ± 0.44
29 | CTTTTTTTTATGAACAGTACAGAAATATATATATAC [XGTACX_site5613] | 8.5 ± 0.42
30 | TTTATATAATGGAAAAGTACTCAGGAAATTTATACA [XGTACX_site3635] | 8.45 ± 0.35
31 | TTTTTTTCTATAATACACCAGAAAAAAAAATTAAAA [TGCATGCA_negctrl_site257] | 8.09 ± 0.47
32 | TTGTTCCAATAAAATCGTACAATTAAACAACCAAAC [XGTACX_site5759] | 8.91 ± 0.25
33 | CAATCAACAAAACATACACACACATATATATATATA [CACACA_site8979] | 10 ± 0.33
34 | AGATTGAAATATAGTTGTACAAATATTTTAAAACAT [XGTACX_site3026] | 8.87 ± 0.51
35 | TTAAAATTAAAAATAGGTACACATATGAACAAGGAC [XGTACX_site1180] | 9.1 ± 0.43
36 | TTATATGATATATGACGTACATATTAATAACATCTA [XGTACX_site6716] | 8.66 ± 0.32
37 | TGTAATATTTTATAAAGTACATTATAATATAATTCA [XGTACX_site2961] | 8.32 ± 0.38
38 | TTTAGCTATTATAGCTGTACAATGATAAAATAAATT [XGTACX_site6318] | 8.4 ± 0.42
39 | ATGATTATAATTTAAAATATTTTACATAACCATTTC [GTGCAC_negctrl_site297] | 8.62 ± 0.45
40 | ATAAGTAAAAATAAAAAAAAAATATATATATATATA [CACACA_negctrl_site1816] | 9.33 ± 0.14
41 | GTTCATATCTTTTGAGCACACATATATATATATAAA [CACACA_site9099] | 8.88 ± 0.33
42 | AATGAATCCTTATATACACACATTATTATATTATAT [CACACA_site3108] | 9.04 ± 0.4
43 | ATTAGCAACATTGATAAATATAAACACACGAAAACA [TGCATGCA_negctrl_site97] | 9.07 ± 0.41
44 | TTTTTGTTCTATATGGTGCATGTTTATATTCGTATT | 9.12 ± 0.52
45 | TTTTAGAAATTTACTAAACTTTATATAACTATTGAA [TGCATGCA_negctrl_site280] | 8.13 ± 0.61
